# Assay results from PMC4336329 (PLoS ONE, 2015).
# Hit rate of the full screen: of about 310,000 compounds, about 2,200 (0.71%) showed an effect of 50% or more. The effect is printed as a negative number. The list shows a part of the results.
# Target: human ether-à-go-go-related gene (hERG) potassium channel (human, UniProt Q12809)
# Assay: primary screen, population patch clamp on CHO cells stably expressing hERG
# Chain of human ether-à-go-go-related gene (hERG) potassium channel (Q12809 whole entry, looked up): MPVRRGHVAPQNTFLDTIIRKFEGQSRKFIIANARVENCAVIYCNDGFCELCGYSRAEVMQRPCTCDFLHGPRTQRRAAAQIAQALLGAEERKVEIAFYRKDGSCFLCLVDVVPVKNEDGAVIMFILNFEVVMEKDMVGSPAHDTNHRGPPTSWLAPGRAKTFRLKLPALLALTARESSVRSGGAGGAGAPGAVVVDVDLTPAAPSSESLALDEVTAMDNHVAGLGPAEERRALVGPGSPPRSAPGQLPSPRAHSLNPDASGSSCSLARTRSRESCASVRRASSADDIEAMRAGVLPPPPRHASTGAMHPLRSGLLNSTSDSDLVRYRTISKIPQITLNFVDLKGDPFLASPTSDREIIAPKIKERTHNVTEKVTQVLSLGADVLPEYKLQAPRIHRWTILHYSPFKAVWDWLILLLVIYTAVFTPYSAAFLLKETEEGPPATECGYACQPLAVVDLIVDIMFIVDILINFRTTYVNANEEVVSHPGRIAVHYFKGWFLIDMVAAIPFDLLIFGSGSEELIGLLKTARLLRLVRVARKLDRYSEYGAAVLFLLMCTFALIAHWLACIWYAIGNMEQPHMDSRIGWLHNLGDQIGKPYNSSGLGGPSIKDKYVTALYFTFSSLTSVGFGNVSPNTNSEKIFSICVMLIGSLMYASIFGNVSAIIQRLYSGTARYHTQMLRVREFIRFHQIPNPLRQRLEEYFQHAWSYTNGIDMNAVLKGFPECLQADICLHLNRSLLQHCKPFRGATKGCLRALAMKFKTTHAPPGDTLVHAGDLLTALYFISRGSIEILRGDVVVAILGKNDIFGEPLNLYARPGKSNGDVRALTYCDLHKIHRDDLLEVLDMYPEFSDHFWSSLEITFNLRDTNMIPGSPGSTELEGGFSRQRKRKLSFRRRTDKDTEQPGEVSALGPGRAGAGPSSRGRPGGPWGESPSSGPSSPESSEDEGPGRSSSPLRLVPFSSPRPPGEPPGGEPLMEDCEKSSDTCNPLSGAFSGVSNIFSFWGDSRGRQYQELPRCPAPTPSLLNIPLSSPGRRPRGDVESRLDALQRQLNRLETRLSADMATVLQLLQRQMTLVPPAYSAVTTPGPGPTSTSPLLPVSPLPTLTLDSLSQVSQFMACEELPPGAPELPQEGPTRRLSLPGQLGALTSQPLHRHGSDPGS
row,Structure (SMILES),"hERG current change (%, negative = inhibition) at 1uM [%]"
1,C/C(N)=N\S(=O)(=O)c1ccc(Cl)cc1,13
2,Cn1cc(C(=O)c2cccc(Cl)c2)cc1/C=N\O,3.57
3,COC(=O)c1onc(C(=O)c2ccccc2)c1C(=O)OC,10.8
4,COc1ccc(S(=O)(=O)N2CCc3ccccc32)cc1C(=O)OCc1c(C)noc1C,1.96
5,CCOc1ccccc1NC(=O)N1CCCC1C(=O)Nc1ccc(-n2cnnn2)c(C)c1 (stereo not shown),-1.11
6,CCCCn1c(N)c(N(CC(C)C)C(=O)c2ccc(-c3ccc(C(C)=O)cc3)o2)c(=O)[nH]c1=O,10.8
7,CCn1c(CC(=O)Nc2ccc(F)cc2)nnc1SCC(=O)NC1=NCCS1,13.8
8,CC(=O)Nc1ccc(C(=O)OC2CCOC2=O)cc1 (stereo not shown),10.5
9,O=C(CC1CS(=O)(=O)CC1CC(=O)Oc1ccccc1F)Oc1ccccc1F (stereo not shown),12.3
10,COc1ccc(NC(=S)N2CCN(c3ccc([N+](=O)[O-])cc3)CC2)cc1OC,-82.2
11,COc1ccc(OCC(=O)Nc2nnc(S(=O)(=O)N3CCCCCC3)s2)cc1,18.1
12,CCOc1ccc2nc(NC(=O)c3c([N+](=O)[O-])cnn3CC)sc2c1,10.4
13,CCCCN(C(=O)c1ccccc1OCc1ccc(F)cc1)c1c(N)n(CCC)c(=O)[nH]c1=O,10.3
14,Cn1c(CO)nc2c3ccccc3ccc21,19.6
15,COc1cccc(-c2ncc3ccccc3c2COC(=O)N(C)C)c1,7.62
16,Cc1cc(C)c(C)c(OCCN2CCOCC2)c1,7.61
17,Cc1ccc(NC(=O)C(=O)NCCCN2CC(C(=O)O)CC2=O)cc1 (stereo not shown),10.2
18,CCC(C)Nc1cc(C)c(C#N)c2nc3ccccc3n12 (stereo not shown),1.9
19,CCN(CC)C(=O)NCc1c(C)cc(C)cc1C,12.4
20,O=C(Cn1nnc2ccccc21)Nc1ccc([N+](=O)[O-])cc1,16.1
21,Cl.O=C(Nc1ccc(N2CCN(Cc3ccccc3F)CC2)cc1)c1ccccc1[N+](=O)[O-],2.83
22,COc1ccccc1NC(=O)c1sc2nc(C)cc(C)c2c1N,7.66

row,Structure (SMILES),"hERG current change (%, negative = inhibition) at 1uM [%]"
1,CCOC(=O)C(=O)C1=C(N2CCOCC2)/C(=C\c2cccc([N+](=O)[O-])c2)CC1,-6.27
2,CC1CN(C(=O)C2(C)CC2(Br)Br)CC(C)O1 (stereo not shown),-0.389
3,COC(=O)CCC(=O)Nc1ccc(S(=O)(=O)Nc2nc(C)cc(C)n2)cc1,11.5
4,O=C(CN1CCC(C(=O)c2ccc3c(c2)OCCO3)CC1)NCc1ccccc1,7.23
5,COCCn1c(SCC(=O)/C=C2\N(C)c3ccccc3C2(C)C)nnc1-c1ccncc1,-19.3
6,O=C(CSc1nccc(=O)[nH]1)Nc1ccc(S(=O)(=O)N2CCOCC2)cc1,10.5
7,COc1ccc(CCNC(=O)C(=O)NCC2CCCN2S(=O)(=O)c2cccs2)cc1OC (stereo not shown),-1.78
8,CNC(=S)N/N=C/c1c(C)c(C(=O)c2ccc(F)cc2)n2ccccc12,12.9
9,S=C1NC(c2ccccc2)=NCN1c1ccc(Cl)cc1,5.04
10,COc1ccc(-c2cc3nc(C)cc(N4CC(C)CC(C)C4)n3n2)cc1 (stereo not shown),8.98
11,COc1ccc(Br)cc1/C=N/NC(=O)CNC(=O)c1cccnc1,22.4
12,Clc1cccc(NCc2nnc3n2CCCCC3)c1,10.3
13,CCOC(=O)c1cc(NC(=O)CSCCO)ccc1Cl,3.13
14,COc1cccc(C(=O)c2c[nH]c(C(=O)NCc3ccco3)c2)c1,2.28
15,S=c1[nH]nc(-c2cccc(Cl)c2)n1Cc1ccccc1,9.23
16,Cc1nn(-c2ccccc2)c(C)c1/C=N/n1c(-c2ccncc2)n[nH]c1=S,13.6
17,O=C(CN1C(=O)C2CC=CCC2C1=O)NCc1ccc2c(c1)OCO2 (stereo not shown),13.2
18,CCN(CC)C(=O)CSc1nc(OC)cc(=O)[nH]1,-15.8
19,CC(=O)Nc1ccc(NC(=O)C(C)OC(=O)CN(C)S(=O)(=O)c2ccc(Cl)cc2)cc1 (stereo not shown),14.2
20,NNC(=O)c1ccccc1-n1cccc1,7.59
21,COc1ccc(NC(=O)CSC2CC(=O)N(c3ccc4c(c3)OCCO4)C2=O)cc1 (stereo not shown),5.42
22,O=c1[nH]c2cc3c(cc2cc1CN(CCO)S(=O)(=O)c1ccccc1)OCCO3,4.77

row,Structure (SMILES),"hERG current change (%, negative = inhibition) at 1uM [%]"
1,CC1(C)N([O-])C(c2cccs2)=C[N+]1=O,6.3
2,COc1cc(C(=O)OC(C)C(=O)NCC2CCCCC2)cc(NC(=O)c2ccco2)c1OC (stereo not shown),9.53
3,Cc1cc(NC(=O)CSCC(=O)Nc2cccc(S(=O)(=O)N3CCCCCC3)c2)no1,3.35
4,COc1ccc(NS(=O)(=O)c2ccc3c(c2)N(C(C)=O)CCS3)cc1,4.11
5,Cc1ccccc1Cn1ccc(-c2ccc(Cl)cc2)c(C#N)c1=O,0.652
6,O=C(O)CSc1c(-c2cccs2)[nH]c2ccccc12,3.3
7,Cc1c(NC(=O)COC(=O)/C=C/c2cccc(Cl)c2)c(=O)n(-c2ccccc2)n1C,1.01
8,COc1ccccc1NS(=O)(=O)c1ccc(N2CCOCC2)c(NC(=O)c2ccco2)c1,7.66
9,CNC(=S)NC1CC2CCC(C1)N2Cc1ccccc1 (stereo not shown),3.28
10,CC(=O)N(C)c1ccc(OCC(O)CN(Cc2ccco2)S(=O)(=O)c2ccc(C)cc2)cc1 (stereo not shown),-3.56
11,CC(C)(C)C(=O)CSc1ccc(S(=O)(=O)N2CCCC2)cn1,0.498
12,CCO[C@@H]1OC(C(=O)N2CCN(Cc3ccccc3)CC2)=C[C@H](c2ccc(Br)cc2)[C@H]1CCCO,6.88
13,Cc1ccc(C)c(-c2nnc(NC(=O)C3=COCCO3)o2)c1,10.8
14,Cc1ccc(OCC(=O)NNC(=O)CSc2ncnc3sc(C)c(C)c23)cc1,10.2
15,Cc1ccc2nc(Cl)c3cc(C(=O)N(CCN(C)C)Cc4ccco4)sc3c2c1,3.17
16,CC1CCCCC1NS(=O)(=O)c1ccc2c(c1)CCC(=O)N2 (stereo not shown),6.32
17,CNC(=O)c1ccc(NC(=O)C2CCN(S(=O)(=O)c3cccc(C(F)(F)F)c3)CC2)cc1,6.57
18,Nc1cc(C(=O)OCC(=O)NNC(=O)c2ccccc2)ccc1Cl,14.9
19,COc1ccc(/C=C/C(=O)NC(=S)Nc2cc3oc4ccccc4c3cc2OC)cc1,7.88
20,CCCC(=O)Nc1nc2nc(-c3ccccc3)cc(=O)n2[nH]1,13.1
21,COc1ccc(C2C(C(=O)NCCN(C)C)c3ccccc3C(=O)N2C)cc1OC (stereo not shown),11.8
22,COc1ccc2nc(-c3ccccc3)nc(SCC(=O)NCC3CCCO3)c2c1 (stereo not shown),16.9

row,Structure (SMILES),"hERG current change (%, negative = inhibition) at 1uM [%]"
1,CCN(CC)S(=O)(=O)c1ccc(O)c(NS(=O)(=O)c2ccccc2F)c1,18.4
2,CCOC(=O)CSc1nnc(Cn2c(=O)sc3ccccc32)n1C,-3.18
3,CCOc1ccc(N(CC(=O)NCc2ccc(OC)cc2)S(C)(=O)=O)cc1,9
4,COc1cccc(NC(=O)N2CCC(N3CCCCC3)CC2)c1,8.7
5,CC(=O)N1CCc2cc(S(=O)(=O)NC(Cc3ccccc3)C(=O)O)ccc21 (stereo not shown),9.82
6,Nc1nc(Sc2ncccc2[N+](=O)[O-])n[nH]1,10.3
7,CCOC(=O)c1sc2nccc(N(C)C)c2c1N=CNOCc1c(F)cccc1Cl,4.42
8,Cc1ccccc1OCC(=O)N/N=C/c1ccc(N(C)C)cc1,2.34
9,O=S(=O)(Nc1ccc(S(=O)(=O)N2CCOCC2)cc1)c1ccccc1,1.55
10,CC(=O)c1ccc(N2CCN(c3ccc(S(=O)(=O)N4CCN(C)CC4)cn3)CC2)cc1,7.23
11,CCc1nnc(NC(=O)OCc2ccccc2)s1,3.72
12,c1cc(Nc2cccc3nccnc23)c2nccnc2c1,8.07
13,O=C(Nc1ccccc1N1CCN(C(=O)c2ccc(Cl)cc2)CC1)c1ccc2c(c1)OCO2,-5.35
14,O=C(COC(=O)c1cccs1)Nc1ccccc1C(F)(F)F,10.5
15,CC(=O)c1c(C)oc2ccc(NS(=O)(=O)c3ccc(F)cc3C)cc12,2.39
16,CCCc1nc(SCC(=O)Nc2nc3c(s2)CCCC3)c2ccccc2n1,9.16
17,CC(Oc1ccc(F)cc1)C(=O)Nc1cc(S(=O)(=O)N2CCOCC2)ccc1N1CCCCC1 (stereo not shown),14.1
18,COc1ccc(-n2nnnc2SCC(=O)NNC(=O)c2ccc([N+](=O)[O-])cc2)cc1,2.98
19,COc1ccc(NC(=O)CCCNC(=O)Cn2cnc3sc(C)c(C)c3c2=O)c(OC)c1,16.4
20,CC1(C)Cc2ccccc2-c2nnc(SCc3ccc(C#N)cc3)n21,-32.4
21,Cc1noc(C)c1COc1ccc(C(=O)Nc2ccccc2)cc1,17.4
22,Cc1cc(C)nc(SCc2ccc(C(=O)N/N=C/c3ccccn3)cc2)n1,-11.7
